Consider 40 sequences from article PMC12820563.

The other results are listed elsewhere or left out. The list includes weakly bound sequences.

In the experiment the target is T1, MBP-FoxP3dN (UniProt Q99JB6).
T1 sequence: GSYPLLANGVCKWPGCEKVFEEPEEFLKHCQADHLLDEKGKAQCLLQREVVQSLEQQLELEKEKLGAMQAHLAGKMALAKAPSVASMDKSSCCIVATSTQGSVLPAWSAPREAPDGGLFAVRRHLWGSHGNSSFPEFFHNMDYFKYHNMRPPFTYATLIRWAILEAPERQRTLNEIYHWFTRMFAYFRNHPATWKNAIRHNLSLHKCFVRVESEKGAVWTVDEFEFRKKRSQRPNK
Description: PD-seq (MBP pull-down with sequencing). Particulars: 20 mM Tris-HCl pH 7.5, 100 mM NaCl, 1.5 mM MgCl2, 0.4 uM protein, 0.1 uM dsDNA library, 30 min, room temperature, amylose pull-down; high values mean tight binding; double strand, one strand shown.
On to “GATGATTGTTCTCCCAGCTGATGAATTCAACGAGTCGAGTAAACAAATTTTCCTAATCTTTCTGTTCAAGCGCCATCTAC”, for which the binding signal (RPM ratio (pull-down/input)) worked out at 0.205.

As for “GATGATTGTTCTCCCAGCTGATGAATTATGAAATTCGAGTAAACAAATTTTCCTAATCTTTCTGTTCAAGCGCCATCTAC”, the binding signal (RPM ratio (pull-down/input)) came out at 0.632.

Turning to “GATGATTGTTCTCCCAGCTGATGAATTCACCGCATCGAGTAAACAAATTTTCCTAATCTTTCTGTTCAAGCGCCATCTAC”, the binding signal (RPM ratio (pull-down/input)) worked out at 0.824.

Turning to “GATGATTGTTCTCCCAGCTGATGAATTCTGTTTTTCGAGTAAACAAATTTTCCTAATCTTTCTGTTCAAGCGCCATCTAC”, the binding signal (RPM ratio (pull-down/input)) is 5.51.

As for “GATGATTGTTCTCCCAGCTGATGAATTTGCTCTATCGAGTAAACAAATTTTCCTAATCTTTCTGTTCAAGCGCCATCTAC”, the binding signal (RPM ratio (pull-down/input)) came out at 0.483.

For the sequence “GATGATTGTTCTCCCAGCTGATGAATTTGGCGGGTCGAGTAAACAAATTTTCCTAATCTTTCTGTTCAAGCGCCATCTAC”, the binding signal (RPM ratio (pull-down/input)) was 0.619.

Consider “GATGATTGTTCTCCCAGCTGATGAATTCGTGTCATCGAGTAAACAAATTTTCCTAATCTTTCTGTTCAAGCGCCATCTAC”, for which the binding signal (RPM ratio (pull-down/input)) amounted to 1.06.

Turning to “GATGATTGTTCTCCCAGCTGATGAATTCGTCGTGTCGAGTAAACAAATTTTCCTAATCTTTCTGTTCAAGCGCCATCTAC”, the binding signal (RPM ratio (pull-down/input)) came to 1.63.

Take “GATGATTGTTCTCCCAGCTGATGAATTGACCCGATCGAGTAAACAAATTTTCCTAATCTTTCTGTTCAAGCGCCATCTAC”: the binding signal (RPM ratio (pull-down/input)) came to 0.22.

For “GATGATTGTTCTCCCAGCTGATGAATTCCAAGCATCGAGTAAACAAATTTTCCTAATCTTTCTGTTCAAGCGCCATCTAC”, the binding signal (RPM ratio (pull-down/input)) is 0.68.

For the sequence “GATGATTGTTCTCCCAGCTGATGAATTTGAATTCTCGAGTAAACAAATTTTCCTAATCTTTCTGTTCAAGCGCCATCTAC”, the binding signal (RPM ratio (pull-down/input)) was determined as 0.784.

For “GATGATTGTTCTCCCAGCTGATGAATTAATATCATCGAGTAAACAAATTTTCCTAATCTTTCTGTTCAAGCGCCATCTAC”, the binding signal (RPM ratio (pull-down/input)) was found to be 0.783.

As to “GATGATTGTTCTCCCAGCTGATGAATTCAACGCGTCGAGTAAACAAATTTTCCTAATCTTTCTGTTCAAGCGCCATCTAC”, the binding signal (RPM ratio (pull-down/input)) is 0.509.

Turning to “GATGATTGTTCTCCCAGCTGATGAATTCGAGGGCTCGAGTAAACAAATTTTCCTAATCTTTCTGTTCAAGCGCCATCTAC”, the binding signal (RPM ratio (pull-down/input)) turned out to be 0.273.

As for “GATGATTGTTCTCCCAGCTGATGAATTGCTATCCTCGAGTAAACAAATTTTCCTAATCTTTCTGTTCAAGCGCCATCTAC”, the binding signal (RPM ratio (pull-down/input)) is 0.786.

In the case of “GATGATTGTTCTCCCAGCTGATGAATTACTATAGTCGAGTAAACAAATTTTCCTAATCTTTCTGTTCAAGCGCCATCTAC”, the binding signal (RPM ratio (pull-down/input)) stood at 0.348.

Take “GATGATTGTTCTCCCAGCTGATGAATTAACGCGATCGAGTAAACAAATTTTCCTAATCTTTCTGTTCAAGCGCCATCTAC”: the binding signal (RPM ratio (pull-down/input)) was 0.623.

On to “GATGATTGTTCTCCCAGCTGATGAATTATAGCTGTCGAGTAAACAAATTTTCCTAATCTTTCTGTTCAAGCGCCATCTAC”, for which the binding signal (RPM ratio (pull-down/input)) is 0.523.

As for “GATGATTGTTCTCCCAGCTGATGAATTGATTGCCTCGAGTAAACAAATTTTCCTAATCTTTCTGTTCAAGCGCCATCTAC”, the binding signal (RPM ratio (pull-down/input)) was found to be 1.55.

As for “GATGATTGTTCTCCCAGCTGATGAATTCCGAGTGTCGAGTAAACAAATTTTCCTAATCTTTCTGTTCAAGCGCCATCTAC”, the binding signal (RPM ratio (pull-down/input)) stood at 1.1.

As to “GATGATTGTTCTCCCAGCTGATGAATTTCGGGCGTCGAGTAAACAAATTTTCCTAATCTTTCTGTTCAAGCGCCATCTAC”, the binding signal (RPM ratio (pull-down/input)) is 0.479.

For “GATGATTGTTCTCCCAGCTGATGAATTTAAAAGTTCGAGTAAACAAATTTTCCTAATCTTTCTGTTCAAGCGCCATCTAC”, the binding signal (RPM ratio (pull-down/input)) came out at 0.183.

As for “GATGATTGTTCTCCCAGCTGATGAATTCGTTGTATCGAGTAAACAAATTTTCCTAATCTTTCTGTTCAAGCGCCATCTAC”, the binding signal (RPM ratio (pull-down/input)) was 4.52.

As to “GATGATTGTTCTCCCAGCTGATGAATTACAGTAATCGAGTAAACAAATTTTCCTAATCTTTCTGTTCAAGCGCCATCTAC”, the binding signal (RPM ratio (pull-down/input)) was 0.589.

Turning to “GATGATTGTTCTCCCAGCTGATGAATTTCGCATATCGAGTAAACAAATTTTCCTAATCTTTCTGTTCAAGCGCCATCTAC”, the binding signal (RPM ratio (pull-down/input)) amounted to 3.23.

Consider “GATGATTGTTCTCCCAGCTGATGAATTCGGAGCCTCGAGTAAACAAATTTTCCTAATCTTTCTGTTCAAGCGCCATCTAC”, for which the binding signal (RPM ratio (pull-down/input)) was determined as 0.408.

For the sequence “GATGATTGTTCTCCCAGCTGATGAATTACTTCGGTCGAGTAAACAAATTTTCCTAATCTTTCTGTTCAAGCGCCATCTAC”, the binding signal (RPM ratio (pull-down/input)) worked out at 0.198.

In the case of “GATGATTGTTCTCCCAGCTGATGAATTACGGTTCTCGAGTAAACAAATTTTCCTAATCTTTCTGTTCAAGCGCCATCTAC”, the binding signal (RPM ratio (pull-down/input)) is 0.967.

Regarding “GATGATTGTTCTCCCAGCTGATGAATTAGTGTTGTCGAGTAAACAAATTTTCCTAATCTTTCTGTTCAAGCGCCATCTAC”, the binding signal (RPM ratio (pull-down/input)) came to 3.93.

On to “GATGATTGTTCTCCCAGCTGATGAATTTGCCTAATCGAGTAAACAAATTTTCCTAATCTTTCTGTTCAAGCGCCATCTAC”, for which the binding signal (RPM ratio (pull-down/input)) stood at 0.653.

In the case of “GATGATTGTTCTCCCAGCTGATGAATTCATGGGCTCGAGTAAACAAATTTTCCTAATCTTTCTGTTCAAGCGCCATCTAC”, the binding signal (RPM ratio (pull-down/input)) came to 0.363.

In the case of “GATGATTGTTCTCCCAGCTGATGAATTAGGGCAATCGAGTAAACAAATTTTCCTAATCTTTCTGTTCAAGCGCCATCTAC”, the binding signal (RPM ratio (pull-down/input)) is 1.66.

Regarding “GATGATTGTTCTCCCAGCTGATGAATTGGTAATGTCGAGTAAACAAATTTTCCTAATCTTTCTGTTCAAGCGCCATCTAC”, the binding signal (RPM ratio (pull-down/input)) was found to be 0.755.

Consider “GATGATTGTTCTCCCAGCTGATGAATTAGGATTCTCGAGTAAACAAATTTTCCTAATCTTTCTGTTCAAGCGCCATCTAC”, for which the binding signal (RPM ratio (pull-down/input)) came out at 0.53.

For “GATGATTGTTCTCCCAGCTGATGAATTTGACCACTCGAGTAAACAAATTTTCCTAATCTTTCTGTTCAAGCGCCATCTAC”, the binding signal (RPM ratio (pull-down/input)) was 0.461.

“GATGATTGTTCTCCCAGCTGATGAATTAGCTTATTCGAGTAAACAAATTTTCCTAATCTTTCTGTTCAAGCGCCATCTAC”: the binding signal (RPM ratio (pull-down/input)) is 3.09.

Consider “GATGATTGTTCTCCCAGCTGATGAATTAGATAAGTCGAGTAAACAAATTTTCCTAATCTTTCTGTTCAAGCGCCATCTAC”, for which the binding signal (RPM ratio (pull-down/input)) was determined as 0.283.

As to “GATGATTGTTCTCCCAGCTGATGAATTGGAGTGGTCGAGTAAACAAATTTTCCTAATCTTTCTGTTCAAGCGCCATCTAC”, the binding signal (RPM ratio (pull-down/input)) came to 0.455.

Regarding “GATGATTGTTCTCCCAGCTGATGAATTAGAAATGTCGAGTAAACAAATTTTCCTAATCTTTCTGTTCAAGCGCCATCTAC”, the binding signal (RPM ratio (pull-down/input)) came out at 0.302.

With “GATGATTGTTCTCCCAGCTGATGAATTAGGAATGTCGAGTAAACAAATTTTCCTAATCTTTCTGTTCAAGCGCCATCTAC”, the binding signal (RPM ratio (pull-down/input)) is 0.57.
